Assay results published in PubChem BioAssay AID504832 (National Center for Advancing Translational Sciences (NCATS), 2011).
The campaign covered roughly 310,000 compounds. About 18,000 (5.8%) were called active. This list was built around the results that the source calls inconclusive (neither active nor inactive); the mix of calls is not that of the screen. The call rests on the fitted dose curve; in most records, active means well fitted inhibition curve with a large enough effect; inconclusive means small, poorly fitted or top-dose-only effect, or another doubt; inactive means no such curve, though single readings can be large or run the other way. No potency is given beside an inconclusive call; the fits are too rough.
On the % scale 0 is the no-effect control and ±100 the full control effect; potency means the concentration at half of the fitted maximal effect; tags describe the fitted curve by direction and shape.

Assay: Primary qHTS for delayed death inhibitors of the malarial parasite plastid, 48 hour incubation
Details: P. falciparum luciferase growth in erythrocytes; series mostly up to 28.7 µM; activity change, negative = inhibition: at the top concentration
Outline: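 Compounds are pin-transferred into medium, infected erythrocytes (2% hematocrit, 0.1% parasitemia final) are added, and plates sit one parasite generation at 37 C in 5% CO2. Detection reagent is then added and luminescence measured.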
With `O=C1ON=C(c2ccc(Cl)cc2)/C1=C/c1ccc(O)cc1` the Potency was inconclusive [inhibitor, partial curve, poor fit].
With `COc1cc(C2c3[nH]c4ccccc4c3C[C@H]3C(=O)N(C4CC4)CC(=O)N23)ccc1OC(C)C` (stereo partly specified) the Potency was active: 9.28 µM.
For `COCCN(C(=O)c1cccc(N2C(=O)CCC2=O)c1)c1nc(-c2ccc([N+](=O)[O-])cc2)cs1`, the Potency was inconclusive [inhibitor, single point].
For `N#Cc1ccc(OCC(=O)Nc2ccc3[nH]c(=O)[nH]c3c2)cc1`, the “activity change, negative = inhibition” value was inactive: -0.774%.
For `CSCCC(=O)N1CCCC(N(C)CCc2ccccc2)C1` (stereo unspecified), the Potency was inconclusive [inhibitor, single point].
For `Cn1c(=O)c2c(nc(N3CCCCCC3)n2Cc2cccc3ccccc23)n(C)c1=O`, the Potency was inconclusive [inhibitor, partial curve].
With `CN(CCc1cn[nH]c1)C(=O)CC1C(=O)NCCN1Cc1ccccc1C(F)(F)F` (stereo unspecified) the “activity change, negative = inhibition” value was inactive: 32.8%.
For `Cc1ccc(-c2nnc(N3CCN(S(C)(=O)=O)CC3)c3ccccc23)cc1`, the Potency was inconclusive [inhibitor, single point].
With `CCN1/C(=C/C=C/c2oc3ccc(-c4ccccc4)cc3[n+]2CC)Oc2ccc(-c3ccccc3)cc21` the Potency was active: 0.928 µM.
With `Cn1ccnc1SCC(=O)Nc1cccc(C(F)(F)F)c1` the “activity change, negative = inhibition” value was inactive: 36.4%.
With `COC(=O)c1c(NC(=O)/C=C/C(=O)O)sc(C)c1-c1ccc(C(C)C)cc1` the Potency was inconclusive [inhibitor, partial curve].
For `COc1cccc(/C=N/NC(=O)c2c(C)nc3ccc(Br)cn23)c1O`, the Potency was active: 11.7 µM.
For `Cc1nccc(-c2ccc3c(c2)OCO3)n1`, the Potency was inconclusive [inhibitor, full curve, poor fit].
In the case of `O=C(Nc1ccc(Cl)cn1)C1CCCN1S(=O)(=O)c1ccc(Cl)cc1` (stereo unspecified), the Potency is reported as inconclusive [inhibitor, partial curve].
With `Cc1cc(C)c(Cn2cnc3ccccc32)c(C)c1` the Potency was inconclusive [inhibitor, partial curve].
For `O=C(O)CCCCCNC(=O)c1ccccc1Br`, the Potency was inconclusive [inhibitor, full curve, poor fit].
For `O=C1[C@H]2[C@@H](c3ccc(F)cc3)N3C(=O)N(c4ccc(Br)cc4)C(=O)[C@@]3(Cc3ccccc3)[C@H]2C(=O)N1C1CCCCC1`, the Potency was active: 3.29 µM.
In the case of `CN(C)C(CNC(=O)CSc1nc2sc3c(c2c(=O)n1C)CCC3)c1ccccc1` (stereo unspecified), the Potency is reported as inconclusive [inhibitor, single point].
In the case of `CCN(CC)c1ccc(NC(=S)NC(=O)c2ccco2)cc1`, the Potency is reported as inconclusive [inhibitor, single point].
In the case of `O=C(NC(=S)N1CCN(C/C=C/c2ccccc2)CC1)c1ccc(Cl)nc1`, the Potency is reported as inconclusive [inhibitor, partial curve].
With `CCn1c(SCC(=O)NC2CCCCC2)nnc1-c1cc2cccc(OC)c2o1` the Potency was inconclusive [inhibitor, partial curve, poor fit].
With `CCOC(=O)c1c(-c2ccc(C)s2)csc1NC(=O)c1ccco1` the “activity change, negative = inhibition” value was inactive: 3.61%.
With `O=C(COc1ccccc1Cl)c1ccc2c(c1)CCCC2` the “activity change, negative = inhibition” value was inactive: 147%.
For `CCCn1c(N)c(C(=O)CSc2nnc(-c3ccco3)n2Cc2ccccc2)c(=O)[nH]c1=O`, the Potency was inconclusive [inhibitor, single point].
With `CCOc1cc(S(=O)(=O)NC2CC(C)(C)NC(C)(C)C2)ccc1Cl` the Potency was inconclusive [inhibitor, single point].
With `O=C(NC1CC1)c1cc(-c2ccc(Br)cc2)nc2ccccc12` the Potency was inconclusive [inhibitor, single point].
In the case of `COC(=O)Nc1ccc(OCC(=O)N2CCOCC2)cc1`, the “activity change, negative = inhibition” value is reported as inactive: -11.5%.
In the case of `O=C(NCCSCc1ccccc1)c1ccccc1`, the Potency is reported as inconclusive [inhibitor, single point].
In the case of `CC(C)(C)c1ccc(/C=C/C(=O)NC2=NCCS2)cc1`, the “activity change, negative = inhibition” value is reported as inactive: -1.73%.
For `CCC(C)[C@H]1CNCCN1CCCc1cc(OC)c(OC)c(OC)c1` (stereo partly specified), the Potency was inconclusive [inhibitor, single point].
With `COc1ccc(C2CC(c3cccs3)=NN2C(=O)CSc2nc(=O)n3cc(C)ccc3n2)cc1` (stereo unspecified) the Potency was active: 10.4 µM.
With `CCOC(=O)C1CCN(C(=O)CCc2nnc3ccc(N4CCC(C)CC4)nn23)CC1` the Potency was inconclusive [inhibitor, partial curve].
With `Cn1cnc(S(=O)(=O)NCc2cccs2)c1` the “activity change, negative = inhibition” value was inactive: 14.8%.
In the case of `CSCCC(NC(=O)c1ccccc1Cl)C(=O)Nc1cccc(S(=O)(=O)N2CCCC2)c1` (stereo unspecified), the Potency is reported as active: 11.7 µM.
For `Cc1ccc(NC(=O)C2CCCN(S(=O)(=O)c3cnc[nH]3)C2)cc1F` (stereo unspecified), the “activity change, negative = inhibition” value was inactive: 2.01%.
For `COc1ccc(CSc2nnnn2-c2ccc(O)cc2)cc1F`, the Potency was inconclusive [inhibitor, single point].
For `COc1ccccc1NS(=O)(=O)c1ccc(N/N=C/c2ccccc2OCC(=O)O)c([N+](=O)[O-])c1`, the Potency was inconclusive [inhibitor, partial curve, poor fit].
In the case of `O=C(CCN1C(=O)[C@H]2CC=CC[C@H]2C1=O)NCc1nc(-c2ccc(Cl)cc2)no1`, the Potency is reported as inconclusive [inhibitor, partial curve, poor fit].
In the case of `COc1ccc(C2=Nn3c(nnc3-c3cc(C)[nH]n3)SC2)cc1`, the Potency is reported as inconclusive [inhibitor, full curve, poor fit].
For `O=C(c1ccccc1)C(CN1CCCC1)c1ccccc1` (stereo unspecified), the Potency was inconclusive [inhibitor, single point].
In the case of `CC(=O)Nc1ccc2nc(-c3cccs3)[nH]c2c1`, the “activity change, negative = inhibition” value is reported as inactive: 82%.
In the case of `CCN(CC)CCOC(=O)c1ccc(NC(=O)CCCN2C(=O)/C(=C/c3cccs3)SC2=S)cc1`, the Potency is reported as active: 5.22 µM.
For `O=C(Cc1ccccc1)NN1C(=O)C2C3C=CC(C4CC34)C2C1=O` (stereo unspecified), the Potency was inconclusive [inhibitor, partial curve, poor fit].
In the case of `COc1ccc(OC)c(CN2CCC(CO)(CCOc3ccccc3)CC2)c1`, the Potency is reported as active: 13.1 µM.
With `COCCN(C(=O)c1cc(Cl)nc2ccccc12)c1c(N)n(Cc2ccccc2)c(=O)[nH]c1=O` the “activity change, negative = inhibition” value was inactive: -4.45%.
For `O=S(=O)(NC1CCCCC1N1CCN(c2ccc(F)cc2)CC1)c1ccc(Cl)cc1` (stereo unspecified), the Potency was active: 13.1 µM.
For `O=C(NC1CCCC1)C(c1ccc(Cl)cc1)N(Cc1ccc(F)cc1)C(=O)CCl` (stereo unspecified), the “activity change, negative = inhibition” value was inactive: -6.94%.
In the case of `O=C(CN1CCc2ccccc21)NC(c1ccccc1)c1ccccc1`, the Potency is reported as inconclusive [inhibitor, partial curve].
In the case of `COc1cccc(C(=O)NCCS(=O)(=O)NCc2ccc(Cl)cc2)c1`, the “activity change, negative = inhibition” value is reported as inactive: -23.6%.
With `CCOC(=O)c1cc(-c2ccc(F)cc2)n(CC(=O)NCc2cccnc2)c1C` the Potency was inconclusive [inhibitor, single point].
In the case of `O=C(C1=C(O)C(=O)N(CCc2ccccc2)C1c1cccnc1)c1ccco1` (stereo unspecified), the Potency is reported as active: 6.57 µM.
In the case of `O=C(NCCc1cccc(Cl)c1)c1cccc([N+](=O)[O-])c1`, the “activity change, negative = inhibition” value is reported as inactive: 38.1%.
For `N#Cc1nc(Nc2cc(F)cc(F)c2)c2ncn(CC(F)F)c2n1`, the Potency was inconclusive [inhibitor, full curve].
In the case of `CC(C)(C)NC(=O)Nc1ccc2nccnc2c1`, the “activity change, negative = inhibition” value is reported as inactive: -21.4%.
With `O=C(O)c1ccc(N2CCN(Cc3ccc4c(c3)OCO4)CC2)c([N+](=O)[O-])c1` the “activity change, negative = inhibition” value was inactive: -9.26%.
For `COc1ccc(S(=O)(=O)N2CCCC2=O)cc1N(C)S(C)(=O)=O`, the “activity change, negative = inhibition” value was inactive: 9.85%.
In the case of `Cc1ccc(-c2nn3c(C)nnc3c3ccccc23)cc1S(=O)(=O)NCc1ccccc1`, the Potency is reported as inconclusive [inhibitor, partial curve, poor fit].
With `COc1c(C)cc(Br)cc1C(=O)NC(=S)NCc1ccco1` the Potency was inconclusive [inhibitor, single point].
In the case of `COc1ccc(/C=C/C(=O)NCc2cnn(C)c2C)cc1COc1ccc(Br)cc1`, the Potency is reported as inconclusive [inhibitor, partial curve, poor fit].
In the case of `Cc1cc(NC(=O)CSc2nc3ccccc3cc2C#N)no1`, the “activity change, negative = inhibition” value is reported as inactive: 21.3%.
For `CC(=O)c1ccc(NC(=O)NC2CC(=O)N(c3ccc4c(c3)OCCO4)C2)cc1` (stereo unspecified), the Potency was inconclusive [inhibitor, partial curve].
For `COCCN(CC1CCCN(C2Cc3ccccc3C2)C1)C(=O)c1ccc(C(C)=O)cc1` (stereo unspecified), the Potency was inconclusive [inhibitor, single point].
In the case of `O=C1OC(Oc2ccccc2)(c2ccccc2)c2ccccc21` (stereo unspecified), the Potency is reported as inconclusive [inhibitor, partial curve, poor fit].
With `Cc1ccccc1OCCCC(=O)Nc1ccc(Br)cc1` the “activity change, negative = inhibition” value was inactive: 10.3%.
In the case of `COCCN(C(=S)Nc1ccc(C)c(C)c1)C(C)c1ccco1` (stereo unspecified), the Potency is reported as inconclusive [inhibitor, single point].
In the case of `COc1ccc(/C=N/NC(=O)c2ccc(CN3c4cccc5cccc(c45)S3(=O)=O)cc2)cc1`, the Potency is reported as inconclusive [inhibitor, partial curve, poor fit].
With `CC(C)C(=O)Nc1cccc2nsnc12` the Potency was inconclusive [inhibitor, single point].
With `CCNC(=S)NS(=O)(=O)c1ccc(C)cc1` the “activity change, negative = inhibition” value was inactive: 4.98%.
For `COc1ccccc1CNC(=O)COC(=O)c1ccc(NC(N)=O)cc1`, the Potency was inconclusive [inhibitor, partial curve, poor fit].
With `O=C(COc1cc(F)ccc1[N+](=O)[O-])Nc1ccc2c(c1)OCO2` the “activity change, negative = inhibition” value was inactive: 89.8%.
For `CC(C)(C)C(=O)Nc1sc2c(c1-c1nc3ccccc3[nH]1)CCCC2`, the Potency was active: 9.28 µM.
